Experimental data: the RNAGym collection of RNA variant scans (doi:10.1093/nar/gkz1192)
The source gives no read counts; variants with many changes may rest on few reads.

B1: CPEB3 Ribozyme (parent)
chain: UAACAGGGGGCCACAGCAGAAGCGUUCACGUCGCAGCCCCUGUCAGAUUCUGGUGAAUCUGCGAAUUCUGCUGUAUAUCUC

Variants of: B1
Test: self-cleavage, relative activity (ratio to wild type); higher = more cleavage; in vitro, sequencing
Method in brief: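 Relative activity was defined as the cleaved/total read fraction for a variant divided by the same fraction for the unmutated ribozyme. CPEB3 self-cleaving ribozyme libraries were made by rounds of error-prone PCR, barcoded, and transcribed in vitro with T7 RNA polymerase for 5 hours at 37°C, and cleavage ran through transcription plus a 15 min DNase I step before EDTA. Illumina sequencing of template-switched reverse transcripts gave the reads, and DNA sequencing mapped the barcodes. Averages come from three batches, using variants with at least 5 reads.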

Variant | self-cleavage
G19A U26A G36A A45G U54C | 0.14
A20G C32A G33C U72C | 0.11
A20G U49A U58C A77G | 0.07
A20G A28U A35G U60A A65G U69C | 0.31
G19U A47G U72C | 0.12
A20G U31C C44G U66C | 0.28
G19U U25C U49C U51C U60C U74A | 0.07
A20G U74C A75C | 1.2
A20G U25C A35U U54C U74C | 0.11
A20G U26C U54C G70A | 0.3
A20G U60C A65U U74C | 0.14
A20G A45G G52U U67C U69A | 0.1
A20G C32U A35U A57C | 0.04
A20G A57G U69A | 0.26
G19U C34U U41A U66C G73U U78C | 0.03
A20G U31C A56U U67A | 0.09
A20G A21G U25C U41A A45U U49G A57G | 0.14
A20G U25G U67C G70U U80A | 0.12
A20G A35G U67C U69C | 0.87
A20G U31C A65G | 0.24
G19U C27U A35U | 0.15

Variant | self-cleavage
A20G U25C U58C U66C U80C | 0.16
A20G U26C A57U C59U U67C | 0.09
A20G U31C U41C U67A | 0.34
G19A G46U C68U | 0.37
A20G C39G U48A U51A | 0.17
A20G U26C U41A U66C U78C | 0.1
A20G A35G U41C G42C U54A A64G U66C | 0.22
A20G U25C U51C C59A | 0.17
A20G U43A A57G | 0.72
G19U U31C U49C U74A | 0.18
A20G A28G A65G A75G | 0.08
A20G U26C U43C A45C U80C | 0.39
A20G A35U U60A U67A A75U | 0.1
A20G A64G U72G | 0.56
G19U C23U A35G C59U | 0.07
A20G U54C U60C | 0.62
A20G U31C A35U A57G U58A U60C U74A | 0.05
A20G A47U C71A A77G | 0.09
A20G A45U U60C U69A | 0.07
A20G A21G U31A G46A A56G | 0.05
A20C A56U U69A A77U | 0.19

Variant | self-cleavage
A20G C39A U54C U74C | 0.11
A18U U51C U58C | 0.2
A20G U49C U51A A64U | 0.12
A20C A21G U41C A77G | 0.12
A20C A21G U25A A28G A35U U51A | 0.04
A20G U26C A45G U67A | 0.11
A18U U49A A56G U67C | 0.1
A20G A28G U41C U60A U69A U72C | 0.18
A20C U41A U48C | 0.18
A20C C39U U72C U74C U78C | 0.35
G19A G33A A57G A65U U66C U80C | 0.07
A20G U51C U80C | 1.04
A20G A28G U49C | 0.46
A20G C29U U49C | 0.32
A20G A28U C32A A35G U69C | 0.12
A20C U26C U51C | 0.12
A20G U26A A45G U67C | 0.59
A20G U26A C40A | 0.21
A20G U26A U49C | 0.4
A20G A21G C39A G42A U49C | 0.09
A20G U31A A47G C50A A75G | 0.12

Variant | self-cleavage
A20G U25C G52A U66A | 0.16
A20G U26A U48A U51G A57G A64U | 0.07
A20G U49C A64U U67C U80C | 0.11
G19U U41A G63A | 0.17
G19U A20G U26C U51C U72A A77G U80C | 0.07
A20G A45C A57G U74C A75G | 0.19
A20G G22U U51C | 0.07
A20G U26A U51G | 0.5
A20G G33U U48A | 0.19
A20G U26C G46C U54A U69C A75G U76G | 0.15
A20G U54A U69A | 0.27
G19U A28G U41C A45G A65G U78G | 0.03
A20G A21G C50A | 0.36
A20G C38U U41C | 0.37
G19A A28G A45G U51C U66C U76C A77C | 0.11
A20G U26C A28U U58C U76A A77U | 0.16
A20G U43C A45G | 0.28
A20G A35G U58C | 0.97
A20G A45G U72A | 0.46
A20G U26A U41C G42C U80C | 0.36
A20G U26A A45U U78C | 0.22
